Measurements as given in PubChem BioAssay AID686979 (National Center for Advancing Translational Sciences (NCATS), 2013).
“And” between values parts separate entries of the source, which are not always exact repeats. Equal entries are not always repeated. Out of some 420,000 compounds screened, about 50,000 (12%) were called active. The shares of active, inactive and inconclusive entries below differ from those in the screen. Calls come from the whole dose curve; as a rule, active = well fitted inhibition curve with a large enough effect; inconclusive = small, poorly fitted or top-dose-only effect; inactive = flat fitted curve, though single readings scatter. Where the call is inconclusive, the potency comes from a doubtful curve fit.

Experiment: qHTS for Inhibitors of human tyrosyl-DNA phosphodiesterase 1 (TDP1): qHTS in cells in presence of CPT; note: nearly all actives have a fitted effect of over 55% in size
Conditions: chicken DT40 Tdp1-/-;hTDP1 cells + 20 nM CPT, ATP luminescence, 48 h; activity change, negative = growth inhibition: at 46.2 µM (top of the series)
Outline: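 Chicken DT40 Tdp1-/- cells stably complemented with human TDP1 were seeded at 400 cells/well in medium containing 20 nM camptothecin, exposed to pin-transferred compounds, and grown at 37 °C for at least 48 hr. Viability was read as ATP luminescence.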
% is set by controls: 0 for no effect and ±100 for the full control effect; potency is the fitted concentration of half-maximal effect; tags give direction and shape of the fitted curve.

SMILES | Potency | activity change, negative = growth inhibition
CCc1ccc(NC(=O)CN2C(=O)C(c3ccc(Cl)cc3)=NC23CCCCC3)cc1 | inconclusive: 18.4 µM [inhibitor, single point] | 
O=C1C2N=NN(CC(=O)N3N=C(c4cccc5ccccc45)CC3c3ccccc3)C2C(=O)N1c1ccccc1 (centres undefined) | inconclusive: 29.1 µM [inhibitor, single point] | 
Cc1cccc(C)c1OCCCn1c(CCNC(=O)C2CCCCC2)nc2ccccc21 | active: 14.6 µM | 
CCOC(=O)c1ccc(N(C(=O)c2ccco2)C(C(=O)NC2CCCCC2)c2ccncc2)cc1 (centres undefined) | inactive | 
COc1ccc(Cc2c(-c3ccco3)nc3ccc(Br)cn23)c(C)c1 | active: 20.6 µM | 
O=S1(=O)c2c(F)cccc2O[C@@H](COCc2ccccc2)CN1CCc1ccc(F)cc1 | inconclusive: 16.4 µM [inhibitor, partial curve, poor fit] | 
CCOc1ccc(NS(=O)(=O)c2ccc(C(=O)NC3CCN(Cc4ccccc4)CC3)cc2)cc1 | inconclusive: 16.4 µM [inhibitor, single point] | 
Cc1ccc(OCCSc2nc(NC(C)C)nc(NC(C)C)n2)cc1 | inconclusive: 23.1 µM [inhibitor, single point] | 
CC1CC(C)(C)NC(=S)N1CCCC(=O)N1CCN(c2ccccc2F)CC1 (centres undefined) | inconclusive: 23.1 µM [inhibitor, single point] | 
CCCOc1ccc(/C=c2\sc3ncnn3c2=O)cc1 | inconclusive: 14.6 µM [inhibitor, partial curve, poor fit] | 
NC(=O)C(c1ccc(Cl)cc1)c1ccc(Sc2ccccc2)nn1 (centres undefined) | inconclusive: 20.6 µM [inhibitor, single point] | 
COc1ccccc1NC1CCCCC1NS(=O)(=O)c1ccc(C)cc1 (centres undefined) | inconclusive: 29.1 µM [inhibitor, single point] | 
O=S(=O)(c1ccc(Cl)cc1)N1CCC(c2nc3ccccc3[nH]2)CC1 | inconclusive: 14.6 µM [inhibitor, partial curve] | 
O=C(Cn1c2ccccc2c2nc3n(c(=O)c21)CCS3)Nc1ccccc1 | active: 20.6 µM | 
Cc1nn2c(-c3cccc(NC(=O)c4ccccc4)c3)nnc2c2ccccc12 | active: 4.61 µM | 
COc1ccc(NC(=O)CSc2nc(NS(=O)(=O)c3ccc(C)cc3)cc(=O)[nH]2)cc1 | inconclusive: 13 µM [inhibitor, partial curve] | 
COc1ccc(CNC(=O)c2ccc(N3CCCC3)c(NC(=O)NCc3ccc(C)cc3)c2)cc1 | active: 16.4 µM | 
O=C(Nc1ccc(S(=O)(=O)N2CCc3ccccc32)cc1)c1ccc2c(c1)OCO2 | inconclusive: 29.1 µM [inhibitor, single point] | 
O=C(O)CCCC(=O)Nc1cccc([N+](=O)[O-])c1 | inactive | 
COC(=O)c1ccc(-c2nc(CN3CCN(Cc4cccc(C)c4)CC3)c(C)o2)cc1 | inconclusive: 29.1 µM [inhibitor, single point] | 
COc1ccc(CNC(=O)/C(C#N)=C/c2cccc(OC)c2OC)cc1 | inconclusive: 20.6 µM [inhibitor, single point] | 
Cc1ccccc1N(CC(=O)N1CCCC1)S(=O)(=O)c1ccc(Cl)cc1 | inconclusive: 29.1 µM [inhibitor, single point] | 
Cc1cc2c(c(SCC(=O)NCc3ccc(Cl)cc3)n1)C(=O)OC2 | inactive | 

SMILES | Potency | activity change, negative = growth inhibition
COc1cccc(NS(=O)(=O)c2ccc(NC(C)=O)cc2)c1 | inconclusive: 8.2 µM [inhibitor, partial curve] | 
COC(=O)[C@@]12C[C@@H](CC(=O)NCCc3ccccc3OC)C(=O)N(Cc3ccccc3)C1=CCC(C)(C)C2 | active: 20.6 µM | 
Cc1cc(CN(C)C(=O)c2ccc3nc(Cc4ccccc4F)oc3c2)on1 | inconclusive: 23.1 µM [inhibitor, single point] | 
CS(=O)(=O)N1CCc2cc(C(=O)Nc3ccc(Cl)cc3)ccc21 | inactive | 
Cc1c(NC(=S)NC(=O)CCc2ccccc2)c(=O)n(-c2ccccc2)n1C | inactive | 
CC(=O)Nc1c(Cl)cc(Cl)c2c1Cc1cc(Cl)ccc1-2 | inconclusive: 20.6 µM [inhibitor, single point] | 
CCN(CC)C(=O)c1ccc(-c2nnc(Nc3ccc(C(=O)NC)cc3)c3ccccc23)cc1 | active: 14.6 µM | 
N#Cc1c(-c2ccccc2)c(-c2ccccc2)nn(CC(=O)NNC(=O)Nc2ccc(Cl)c(Cl)c2)c1=O | inconclusive: 20.6 µM [inhibitor, single point] | 
Cc1nc2ccccc2n1Cc1ccc(Br)cc1 | active: 5.8 µM | 
Cc1cc(OC(C)C(=O)NCCc2c[nH]c3ccccc23)c2c(C)cc(=O)oc2c1 (centres undefined) | active: 16.4 µM | 
CCCn1c(NCc2cc(C)ccc2O)nc2ccccc21 | inconclusive: 20.6 µM [inhibitor, single point] | 
CN(C(=O)c1cccc(NC(=O)c2ccccc2)c1)C1CCCCC1 | inconclusive: 23.1 µM [inhibitor, single point] | 
Cn1ncc(Br)c1C(=O)N1CCOCC1 | inactive | 
O=C(Cc1ccccc1)N(Cc1cccnc1)c1nc2c(F)cc(F)cc2s1 | inconclusive: 29.1 µM [inhibitor, single point] | 
COc1ccc(-c2cn3c(n2)sc2cc(C(=O)Nc4ccc(C)c(C)c4)ccc23)cc1 | inactive | 
COc1ccc(-c2cc(C)no2)cc1S(=O)(=O)N1CCOc2ccccc21 | inconclusive: 18.4 µM [inhibitor, single point] and inconclusive: 25.9 µM [inhibitor, single point] | 
COc1ccc(CCNC(=O)c2ccc3c(c2)N(Cc2c(F)cccc2Cl)C(=O)CS3)cc1OC | active: 8.2 µM | 
Cc1cccc(OC(=O)CSc2nnc(CNC(=O)c3ccccc3)o2)c1C | inactive | 
CCCNC(=O)c1ccc(N2CCC3(CC2)CC(c2cccc(Br)c2)=NO3)c(NC(=O)c2ccc(Br)cc2)c1 | inactive | 
O=C(Nc1cccc(S(=O)(=O)N2CCCC2)c1)c1ccc2ccccc2n1 | active: 20.6 µM | 
Clc1ccc(-c2nnc(-c3ccccc3)nc2-c2c[nH]c3ccccc23)cc1 | inconclusive: 16.4 µM [inhibitor, single point] | 
CCc1ccccc1NC(=O)CN(Cc1ccccc1)S(=O)(=O)c1ccc(Br)cc1 | inconclusive: 20.6 µM [inhibitor, single point] | 
CCOc1cccc(-c2cc(NCCc3ccccn3)n3nccc3n2)c1 | inconclusive: 29.1 µM [inhibitor, single point] | 

SMILES | Potency | activity change, negative = growth inhibition
N#CC(=C=[N-])c1nc2ccccc2nc1-[n+]1ccccc1 | inactive | 
O=C(C1=C(O)C(=O)N(CCN2CCOCC2)C1c1ccc([N+](=O)[O-])cc1)c1cc2ccccc2o1 (centres undefined) | inactive | 
COC(=O)C1CCN(C(=O)CSc2nc3nc(C)cc(C)n3n2)CC1 | inactive | 
CCCCNc1c(CC(C)C)nc2nc(C)cc(C)n12 | active: 16.4 µM | 
COc1cccc(Cn2cc(/C=N/NC(=O)c3cc(O)cc(O)c3)c3ccccc32)c1 | inconclusive: 18.4 µM [inhibitor, single point] | 
O=C(Oc1ccc(N(Cc2cccs2)C2=NS(=O)(=O)c3ccccc32)cc1)c1ccco1 | inconclusive: 23.1 µM [inhibitor, single point] | 
Cc1ccc(NS(=O)(=O)c2ccc(CCC(=O)N3CCOCC3)cc2)cc1 | inconclusive: 29.1 µM [inhibitor, single point] | 
O=c1c2ccc(Cl)cc2nc(-c2ccc([N+](=O)[O-])cc2)n1O | active: 8.2 µM | 
CCCCOC(=O)C1=C(C)Nc2ncnn2C1c1cccc(OC)c1 (centres undefined) | inconclusive: 29.1 µM [inhibitor, single point] | 
CCCCCCCCCCCCCCCCCCN(CCCCCCCCCCCCCCCCCC)c1ccc(/C=C/c2ccnc3ccccc23)cc1 | inactive | 
COc1cccc(NC(=O)CSC2=Nc3ccccc3C3=NC(CC(=O)NC4CCCCC4)C(=O)N23)c1 (centres undefined) | inconclusive: 18.4 µM [inhibitor, single point] | 
CN(C(=O)c1cccc(NC(=O)C2CCN(C(=O)OC(C)(C)C)CC2)c1)C1CCCCC1 | active: 20.6 µM | 
CCOC(=O)c1c(C)[nH]c(C)c1S(=O)(=O)N1CCC(C(=O)N2CCN(c3ccccc3F)CC2)CC1 | inconclusive: 29.1 µM [inhibitor, single point] | 
CC(C)CCNC(=O)c1c[nH]c2ccc(S(=O)(=O)N3CCC4(CC3)OCCO4)cc2c1=O | inconclusive: 20.6 µM [inhibitor, single point] | 
CC1CCN(C(=O)Cn2ncc3c4ccccc4n(C)c3c2=O)CC1 | inactive | 
COc1cc(CN(C)CCc2ccccn2)cc(OC)c1OC | inactive | 
CCc1nnc(SCc2cc(C)ccc2C)c2cc3sc(C)cc3n12 | inconclusive: 18.4 µM [inhibitor, single point] | 
CSCCC(C(=O)Nc1c(C)cccc1C)N(C)CCc1ccccc1 (centres undefined) | active: 18.4 µM | 
CCCc1cc(=O)n(-c2nc3ccccc3s2)[nH]1 | inactive | 
COc1cc(OC)c(OC)cc1/C=C/c1nc2cc3ccccc3cc2c(=O)n1-c1ccc(F)cc1F | active: 11.6 µM | 
COc1cc(C(=O)NCC(=O)OCC(=O)c2cccc3ccccc23)cc(OC)c1OC |  | inconclusive: -35.5% [inhibitor]
Cc1ccc2c(c1)-c1cc(C)nn1C(c1cc(Br)ccc1O)N2 (centres undefined) | inconclusive: 29.1 µM [inhibitor, single point] | 
COc1ccc(CNc2ncnc3ccc(-c4ccccc4CN(C)C)cc23)c(OC)c1 | active: 20.6 µM | 
